# In PubChem BioAssay AID1745853 (National Center for Advancing Translational Sciences (NCATS), 2022):
# Values joined by “and” are separate entries in the source; they are usually repeats but may differ in a detail not shown here. Equal values may be shown once. Some of the results follow. Further columns of the screen follow, without active or inactive calls. Square brackets hold non-standard residues; d marks the D form. Peptide text beside a SMILES is read from it. ξ: configuration not given here. ξTyr(βOH) = NC(C(=O)O)C(O)c1ccc(O)cc1
# Tests used:
# Experiment in all cases: Primary Screen for Target Class Profiling of Small Molecule Inhibitors of Methyltransferases
# [1] = target: Glycine N-methyltransferase (Homo sapiens) (UniProt Q14749); details: purified enzyme, MTase-Glo SAH luminescence; measured here: GNMT inhibition; at 40 µM; stronger effect = lower value
# How it was run: (§1)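 Each enzyme was reacted with SAM and its substrate, with compounds tested once at 40 uM; SAH formed was read by MTase-Glo luminescence.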
# [2] = target: Guanidinoacetate N-methyltransferase (Homo sapiens) (UniProt Q14353); details: purified enzyme, MTase-Glo SAH luminescence; measured here: GAMT inhibition; at 40 µM; stronger effect = lower value
# How it was run: as §1
# [3] = target: Histamine N-methyltransferase (Homo sapiens) (UniProt P50135); details: purified enzyme, MTase-Glo SAH luminescence; measured here: HNMT inhibition; at 40 µM; stronger effect = lower value
# How it was run: as §1
# [4] = target: Nicotinamide N-methyltransferase (Homo sapiens) (UniProt P40261); details: purified enzyme, MTase-Glo SAH luminescence; measured here: NNMT inhibition; at 40 µM; stronger effect = lower value
# How it was run: as §1
# [5] = target: Phenylethanolamine N-methyltransferase (Homo sapiens) (UniProt P11086); details: purified enzyme, MTase-Glo SAH luminescence; measured here: PNMT inhibition; at 40 µM; stronger effect = lower value
# How it was run: as §1
# % is scaled to controls: 0 for no effect and ±100 for the full control effect.
Structure (SMILES),"activity change, negative = inhibition [1]","activity change, negative = inhibition [2]","activity change, negative = inhibition [3]","activity change, negative = inhibition [4]","activity change, negative = inhibition [5]"
Cc1ccc(C(=O)N(CCCN)C(c2oc3cc(Cl)ccc3c(=O)c2Cc2ccccc2)C(C)C)cc1 (stereo not drawn),-1.09%,10.1%,0.43%,-29.9%,0.034%
C[S+](=O)([O-])N1CCn2c(nnc2-c2ccccc2)C1,-3.03%,-2.04%,-0.699%,-5.48%,-4.27%
Cc1noc(C)c1-c1cc2cc(C(C)C)oc2c(-c2ccc(CO)cc2)n1,-9.88%,-1.68%,-8.79%,-27.2%,-8%
CCOCCCNC(=O)C1c2c(n(C)c3ccccc23)SCC(=O)N1c1ccc(C)c(Cl)c1 (stereo not drawn),6.95%,0%,4.88%,-3.12%,7.62%
Cc1cc2cc(-c3c(C)noc3C)nc(N3CCN(c4ccccn4)CC3)c2o1,-10.5%,-8.28%,-9.72%,-11.2%,0.745%
Cc1c(CN2CCN(S(C)(=O)=O)CC2)sc2c(N3CCOCC3)nc(-c3cnc(N)nc3)nc12,-50.1%,3.22%,-3.65%,-21.2%,-16.2%
CC1CCC(NC(=O)C2(C)Cn3c(cc4sccc43)C(=O)N2Cc2ccc(Cl)cc2)CC1 (stereo not drawn),2.67%,0%,6.55%,-4.25%,0.432%
Cn1ccnc1CN1CCOc2cc([S+](=O)([O-])Nc3ccccc3)ccc2C1,-3.33%,-7.32%,-0.16%,-7.84%,-1.42%
O=C1NCCCCCN(S(=O)(=O)c2ccc3c(c2)OCCO3)[C@H]2CCC[C@@H]12,-6.14%,-5.74%,-2.89%,-5.69%,-0.383%
CCCN1CCN(CCCNC(=O)c2cc3n(n2)CC(C)(C(=O)NC2CCCC2)N(CC)C3=O)CC1 (stereo not drawn),4.32%,0.474%,2.14%,5.24%,4.17%
CCOc1ccc(-c2cc3n(n2)CC(C)(C(=O)NC2CCCCC2)N(CCCOC)C3=O)cc1 (stereo not drawn),-6.29%,3.74%,-0.016%,5.13%,0.314%
CCOCc1nc(C2CCCN2S(=O)(=O)c2cn(C)cn2)no1 (stereo not drawn),-4.28%,-8.23%,-1.25%,-14.3%,-2.62%
Cc1cc(Nc2nc(N[C@@H](C)c3ncc(F)cn3)ncc2Cl)n[nH]1,-9.32% and -16.8%,-4.49%,5.05% and -7.28%,-20.6% and -21.1%,-1.18% and 21.2%
C=C1CC[C@@H]2[C@@](C)(CO[C@@H]3O[C@H](CO)C(O)[C@H](O)C3O)[C@H](O)CC[C@@]2(C)[C@@H]1CC/C(C)=C/CO (stereo partly drawn),-0.268%,-4.11%,5.95%,-15%,-8.93%
O=C(CCc1nnc2n(Cc3ccc(F)cc3)c(=O)c3ccccc3n12)NCCc1ccc(Cl)cc1,-4.95%,-4.45%,-3.81%,-5.35%,-6.46%
COc1cccc(C(=O)Cn2nc3n(C(C)C)c(=O)c4ccc(C(=O)NC(C)C)cc4n3c2=O)c1,0.892%,0%,7.91%,0.176%,4.12%
O=C(Nc1cc(F)ccc1F)N1Cc2c(sc3c2CCCC3)-n2cccc2C1c1ccccc1 (stereo not drawn),-0.394%,2.67%,-3.73%,-5.22%,1.13%
NC(=O)c1cccc(-c2cc(OC(=O)NC3CCCCC3)ccc2O)c1,4.09%,8.93%,9.91%,-14.3%,5.47%
CC1(C)CC[C@]2(C(=O)O)[C@H](O)C[C@]3(C)C(=CCC4[C@@]5(C)CC[C@H](O[C@@H]6O[C@H](CO[C@@H]7OC[C@H](O)[C@H](O)[C@H]7O[C@@H]7OC[C@@H](O)[C@H](O)[C@H]7O)[C@@H](O)[C@H](O)[C@H]6O[C@@H]6O[C@H](CO)[C@@H](O)[C@H](O)[C@H]6O)C(C)(C)C5CC[C@]43C)[C@@H]2C1 (stereo partly drawn),0.429%,-3.86%,6.55%,-14.4%,-3.94%

Structure (SMILES),"activity change, negative = inhibition [1]","activity change, negative = inhibition [2]","activity change, negative = inhibition [3]","activity change, negative = inhibition [4]","activity change, negative = inhibition [5]"
COc1ccc(-c2cc3n(n2)CC(C)(C(=O)NCc2ccccc2)N(CCc2ccc(Cl)cc2)C3=O)cc1 (stereo not drawn),5.66%,4.39%,8.56%,12.5%,2.86%
O=C(c1cc(-c2ccccc2)nc2ccccc12)N1CCc2c(nc[nH]c2=O)C1,-7.97%,-2.38%,-2.64%,-13.5%,-6.02%
NS(=O)(=O)C#Cc1ccccc1,-15.3%,-3.77% and 7.02%,0.834%,-4.17% and -6.15%,8.16% and 3.19%
CC(=O)Nc1c2n(c3ccccc13)CC(C)(C(=O)NCCC(C)C)N(Cc1cccc(Cl)c1)C2=O (stereo not drawn),-6.01%,3.38%,-4.68%,-5.11%,-2.13%
Cc1cc2c(cc3n2CC(C)(C(=O)NC2CCCCCCC2)N(CCc2ccc(Cl)cc2)C3=O)o1 (stereo not drawn),-4.28%,-5.06%,6.38%,-4.47%,-6.13%
CCC(CC)Nc1ncnc2c1CN(C1CCC1)C(=O)CN2C,-9.96%,-7.53%,-8.64%,-17.4%,-9.1%
CCNC(=O)Nc1ccc([C@H]2OCC(=O)N(Cc3scnc3C)[C@@H]2CO)cc1,-4.82%,-12.6%,-2.26%,-7.34%,-5.19%
CC(C)(O)CNc1nc(Nc2ccnc(C(F)(F)F)c2)nc(-c2cccc(C(F)(F)F)n2)n1,-6.6%,0.418%,-7.02%,-8.29%,0.876%
CN1C[C@H](O)C[C@H]1c1nnc2n1CCN(C(=O)C1CCCCC1)CC2,-1.5%,0.787%,2.96%,-3.84%,-12.9%
c1ccc(CN2CCC3(CCCc4ccccc43)CC2)cc1,-9.34%,2.23%,-3.78%,-8.13%,2.86%
OC/C=C/C=C/[C@H]1Cc2cc(O)cc(O)c2O1,-11.4%,-14.6%,0.749%,-20.5%,-12.6%
Cc1ccc(C(=O)C(C)CN2CCCCC2)cc1 (stereo not drawn),-3.82%,-0.015%,2.07%,-15.3%,3.1%
CC(C)C1NC(=O)CNC(=O)C2CCCN2C(=O)C(Cc2c[nH]c3ccccc23)NC(=O)CNC(=O)C(C(O)c2ccc(O)cc2)NC(=O)CNC1=O (stereo not drawn) (cyclo(G[ξTyr(βOH)]GWPGV); configuration not given here),0%,5.86%,11.5%,-4.38%,5.81%
CC1=C[C@@H](CNS(C)(=O)=O)[C@H](C(C)C)C[C@H]1CC(=O)O,-7.05%,-12.7%,-5.36%,-14.5%,-13.1%
Cc1ccc(NC(=O)CSc2nnc3n(CCc4ccccc4)c(=O)c4ccccc4n23)cc1C,-0.016%,0%,4.22%,0.174%,1%
CCCCC1C(=O)N(c2ccccc2)N(c2ccccc2)C1=O,-0.506%,12.7%,4.07%,-3.83%,3.3%
CCOC(=O)c1cc2n(n1)CC(C)(C(=O)NCc1ccccc1OC)N(CCc1ccccc1Cl)C2=O (stereo not drawn),-2.59%,0%,2.66%,-12%,-0.877%
Cc1ccc(N2C(=O)c3cc4sccc4n3CC2(C)C(=O)NC2CCCC2)cc1C (stereo not drawn),-4.77%,2.07%,-4.14%,-4%,-8.58%
C=C1CCC[C@]2(C)C[C@]3(O)OC(=O)C(C)=C3C[C@@H]12,-5.86%,-6.07%,1.65%,-18.7%,-1.4%

Structure (SMILES),"activity change, negative = inhibition [1]","activity change, negative = inhibition [2]","activity change, negative = inhibition [3]","activity change, negative = inhibition [4]","activity change, negative = inhibition [5]"
NC(=O)N1CCCC(C(=O)NCCCn2nccc2C2CC2)C1 (stereo not drawn),-1.86%,0.817%,1.75%,-6.83%,13.1%
C[C@@H]1O[C@@H](O[C@H]2[C@H](O)[C@@H](O)[C@H](OC(=O)[C@]34CCC(C)(C)C[C@H]3C3=CCC5[C@@]6(C)CC[C@H](O[C@@H]7O[C@H](C(=O)O)[C@@H](O)[C@H](O)[C@H]7O)C(C)(C)C6CC[C@@]5(C)[C@]3(C)CC4)O[C@@H]2CO)[C@H](O)[C@H](O)[C@H]1O (stereo partly drawn),1.92%,6.08%,7.21%,-7.57%,8.82%
Cc1cnc(CN(C)Cc2cn(-c3ccccc3)nn2)[nH]1,-6.21%,-5.43%,-6.92%,-7.07%,-11%
COc1ccc(CNC(=O)CCn2ccc3cc(S(=O)(=O)N4CCCCC4)ccc32)cc1,3.51%,4.11%,9.02%,1.44%,3.26%
CCC1c2nccn2CCCN1C(=O)Cn1c(=O)oc2ccccc21 (stereo not drawn),-6.79%,-10.8%,-3.39%,-8.94%,-8.78%
CCNC(=O)N1CCOc2ccc(CCC(=O)N3CCCCC3c3cccnc3)cc2C1 (stereo not drawn),-3.34%,-2.75%,-27.9%,-10.2%,-7.17%
O=C(Nc1ccc2[nH]nc(-c3ccncc3)c2c1)[C@@H]1CCN(CC(=O)N2CCN(c3ccc(-c4ncccn4)cc3)CC2)C1,-15.8% and -16.4%,-1.99%,-7.12% and -5.48%,-19.1% and 11.3%,-16.8% and 40.4%
CC1(C)CC[C@]2(C(=O)O[C@@H]3O[C@H](CO)[C@@H](O)[C@H](O)[C@H]3O)CC[C@]3(C)C(=CCC4[C@@]5(C)C[C@@H](O)[C@H](O)[C@](C)(C=O)C5CC[C@]43C)[C@@H]2[C@@H]1O (stereo partly drawn),-4.42%,-2.05%,2.55%,-15.9%,0.647%
Cc1cccc(-c2nnn3c2nc(NCc2ccccc2)c2ccccc23)c1,-2.83%,5.52%,-3.69%,1%,-3.13%
COc1ccccc1N1CCN(C(=O)CC[C@]23CC[C@](C)(O)C[C@H]2C(C)(C)C[C@@H]3NC(=O)c2cccnc2)CC1,-3.47%,-8.04%,-11.4%,-6.28%,-3.23%
Cc1cc(C)c(C#N)c(N2CCC3(CCC(=O)N(CC(C)O)C3)CC2)n1 (stereo not drawn),-2.07%,-1.48%,-1.66%,-0.979%,-6.5%
Nc1ncnc2c1c(I)cn2C1OC(CO)C(O)C1O (stereo not drawn),–,-96.8%,–,-99.2%,-99.1%
CC(CCc1ccccc1)NC(=O)c1cc2n(n1)CC(C)(C(=O)NC1CCCCC1)N(C)C2=O (stereo not drawn),-1.66%,1.31%,-2.72%,1.95%,-0.363%
Cc1cc2c(cc3n2CC(C)(C(=O)NC2CCCCCC2)N(c2cc(Cl)ccc2C)C3=O)o1 (stereo not drawn),3.49%,-1.84%,1.14%,3.29%,2.98%
N=C(N)SCCN,-7.21%,5.39%,-50.8%,-10.1%,5.89%
O=C(c1cc(Br)cn2ccnc12)N1CCCC1,0.084%,-0.316%,-1.39%,-9.15%,-17.3%
O=C(NCCc1ccc(Cl)cc1)c1nc(-c2ccc(Cl)cc2Cl)c2ccccn12,-4.7%,-5.23%,-3.17%,-8.15%,-4.53%
O=C(CNC(=O)c1cccc(-c2ccc(C(F)(F)F)cc2)c1)NCC(F)(F)F,-7.13%,-9.33%,-5.53%,-14%,-7.67%
